Measurements: PubChem BioAssay (NCI)
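Grown in 96-well plates, cells were treated for 48 hours with each compound at five concentrations. Insufficient inhibition: endpoint recorded as highest concentration tested. Abbreviation: GI50, concentration required for 50% inhibition of growth.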 For part of its entries the source gives two or more results. This list holds those alone. The source may hold further records. For some assays here: The tests behind the records often covered other concentration ranges, which the source does not state; some values may only mark the edge of a range. What stands in brackets tells the records apart. Letters count within one entry. For some assays here: Results that share an entry repeat one measurement (runs, samples, wells, individuals or studies).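 TGI is the concentration that stops growth completely.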

Key:
Assay in all cases: inhibition of tumour cell growth, NCI panel, 48 h
[1] = system: NCI-H226 lung
[2] = system: NCI-H23 lung
[3] = system: NCI-H460 lung
[4] = system: NCI-H522 lung
[5] = system: NCI/ADR-RES ovarian
[6] = system: OVCAR-3 ovarian
[7] = system: OVCAR-4 ovarian
[8] = system: OVCAR-5 ovarian
[9] = system: OVCAR-8 ovarian
[10] = system: PC-3 prostate
[11] = system: RPMI-8226 leukemia
[12] = system: RXF 393 renal
[13] = system: SF-268 CNS
[14] = system: SF-295 CNS
[15] = system: SF-539 CNS
[16] = system: SK-MEL-2 melanoma
[17] = system: SK-MEL-28 melanoma
[18] = system: SK-MEL-5 melanoma
[19] = system: SN12C renal
[20] = system: SNB-19 CNS
[21] = system: SNB-75 CNS
[22] = system: SR leukemia
[23] = system: SW-620 colon
[24] = system: TK-10 renal
[25] = system: U251 CNS
[26] = system: UACC-257 melanoma
[27] = system: UACC-62 melanoma
[28] = system: UO-31 renal

In the case of `Nc1ncnc2c(C3OC(CO)C(O)C3O)nsc12` (stereo not given), the GI50 [1] is reported as 51.8 nM [sample A, 1 test] and < 15.7 nM [sample A, mean of 2 tests] and 29.7 µM [sample B, mean of 2 tests], the TGI [1] is reported as 712 nM [sample A, mean of 2 tests] and > 100 µM [sample B, mean of 2 tests] and the GI50 [2] is reported as 93.9 nM [sample A, 1 test] and < 26.9 nM [sample A, mean of 2 tests] and 41.3 µM [sample B, mean of 2 tests]. For the same compound, the TGI [2] was 1.46 µM [sample A, mean of 2 tests] and > 100 µM [sample B, mean of 2 tests], the GI50 [3] was < 12.1 nM [sample A, mean of 2 tests] and 5.66 µM [sample B, 1 test] and the GI50 [4] was 28 nM [sample A, 1 test] and < 15.6 nM [sample A, mean of 2 tests] and 20.7 µM [sample B, mean of 2 tests]. For the same compound, the TGI [4] was 127 nM [sample A, 1 test] and 289 nM [sample A, mean of 2 tests] and > 79.1 µM [sample B, mean of 2 tests], the GI50 [5] was 8.06 nM [sample A, 1 test] and 4.69 µM [sample B, mean of 2 tests] and the TGI [5] was 86.6 nM [sample A, 1 test] and 383 nM [sample A, mean of 2 tests] and > 100 µM [sample B, mean of 2 tests]. The GI50 [6] was 28 nM [sample A, 1 test] and < 11 nM [sample A, mean of 2 tests] and 10.6 µM [sample B, mean of 2 tests], the TGI [6] was 178 nM [sample A, 1 test] and 40.3 nM [sample A, mean of 2 tests] and > 81.8 µM [sample B, mean of 2 tests] and the GI50 [7] was 53.1 nM [sample A, 1 test] and < 13.7 nM [sample A, mean of 2 tests] and 7.52 µM [sample B, mean of 2 tests]. For the same compound, the TGI [7] was 94.2 nM [sample A, mean of 2 tests] and > 93.9 µM [sample B, mean of 2 tests], the GI50 [8] was 56.3 nM [sample A, 1 test] and < 13.1 nM [sample A, mean of 2 tests] and 27.7 µM [sample B, mean of 2 tests] and the TGI [8] was 4.31 µM [sample A, mean of 2 tests] and > 100 µM [sample B, mean of 2 tests]. The GI50 [9] was 18.3 nM [sample A, 1 test] and 6.44 µM [sample B, mean of 2 tests], the TGI [9] was 514 nM [sample A, 1 test] and 1.01 µM [sample A, mean of 2 tests] and > 100 µM [sample B, mean of 2 tests] and the TGI [10] was 43 nM [sample A, mean of 2 tests] and 93.4 µM [sample B, 1 test]. For the same compound, the GI50 [11] was 18.9 nM [sample A, 1 test] and 3.45 µM [sample B, mean of 2 tests], the TGI [11] was 194 nM [sample A, mean of 2 tests] and > 29.6 µM [sample B, mean of 2 tests] and the GI50 [12] was 7.36 nM [sample A, 1 test] and < 17.8 nM [sample A, mean of 2 tests] and 21.7 µM [sample B, mean of 2 tests]. The TGI [12] was 53.9 nM [sample A, 1 test] and 201 nM [sample A, mean of 2 tests] and > 74.7 µM [sample B, mean of 2 tests], the GI50 [13] was 27.2 nM [sample A, mean of 2 tests] and 29.3 µM [sample B, mean of 2 tests] and the GI50 [14] was 32.4 nM [sample A, 1 test] and 29.8 nM [sample A, mean of 2 tests] and 31 µM [sample B, mean of 2 tests]. For the same compound, the TGI [14] was 296 nM [sample A, 1 test] and > 100 µM [sample A, mean of 2 tests] and 98.9 µM [sample B, mean of 2 tests], the GI50 [15] was 178 nM [sample A, 1 test] and < 26.4 nM [sample A, mean of 2 tests] and 39.7 µM [sample B, mean of 2 tests] and the TGI [15] was 528 nM [sample A, 1 test] and > 43 µM [sample A, mean of 2 tests] and > 100 µM [sample B, mean of 2 tests]. The GI50 [16] was 18.6 nM, 10.5 nM [sample A, 1 test] and 6.47 µM [sample B, mean of 2 tests], the TGI [16] was 82.7 nM, 48.6 nM [sample A, 1 test] and 47 µM [sample B, mean of 2 tests] and the GI50 [17] was 42.2 nM [sample A, 1 test] and 36.2 nM [sample A, mean of 2 tests] and 37.5 µM [sample B, mean of 2 tests]. The TGI [17] was 514 nM [sample A, 1 test] and 3.38 µM [sample A, mean of 2 tests] and > 100 µM [sample B, mean of 2 tests], the GI50 [18] was 46.8 nM [sample A, 1 test] and 30.6 nM [sample A, mean of 2 tests] and 30.7 µM [sample B, mean of 2 tests] and the TGI [18] was 357 nM [sample A, 1 test] and 227 nM [sample A, mean of 2 tests] and > 100 µM [sample B, mean of 2 tests]. For the same compound, the GI50 [19] was 23.3 nM [sample A, 1 test] and < 18.8 nM [sample A, mean of 2 tests] and 14.8 µM [sample B, mean of 2 tests], the TGI [19] was 181 nM [sample A, 1 test] and > 94.6 µM [sample B, mean of 2 tests] and the GI50 [20] was 96.1 nM [sample A, 1 test] and 116 nM [sample A, mean of 2 tests] and 98 µM [sample B, mean of 2 tests]. For the same compound, the GI50 [21] was 18 nM [sample A, 1 test] and < 11.8 nM [sample A, mean of 2 tests] and 6.63 µM [sample B, mean of 2 tests], the TGI [21] was 75.1 nM [sample A, 1 test] and < 31.3 nM [sample A, mean of 2 tests] and 53.7 µM [sample B, mean of 2 tests] and the GI50 [22] was 36.8 nM [sample A, 1 test] and 509 nM [sample B, mean of 2 tests]. The TGI [22] was < 19.6 nM [sample A, mean of 2 tests] and > 58.9 µM [sample B, mean of 2 tests], the GI50 [23] was 23.9 nM [sample A, 1 test] and 6.62 µM [sample B, mean of 2 tests] and the GI50 [24] was 28 nM [sample A, 1 test] and < 10.5 nM [sample A, mean of 2 tests] and 10.2 µM [sample B, mean of 2 tests]. The TGI [24] was 110 nM [sample A, mean of 2 tests] and > 62.3 µM [sample B, mean of 2 tests], the GI50 [25] was 74.7 nM [sample A, 1 test] and 41.4 nM [sample A, mean of 2 tests] and 50.4 µM [sample B, mean of 2 tests] and the GI50 [26] was 49.4 nM [sample A, 1 test] and < 19 nM [sample A, mean of 2 tests] and 45.7 µM [sample B, mean of 2 tests]. For the same compound, the TGI [26] was 391 nM [sample A, 1 test] and 869 nM [sample A, mean of 2 tests] and > 100 µM [sample B, mean of 2 tests], the GI50 [27] was 17.3 nM [sample A, 1 test] and 13.3 µM [sample B, 1 test] and the TGI [27] was 96 nM [sample A, 1 test] and 68.7 µM [sample B, 1 test]. The GI50 [28] was 15.8 nM [sample A, 1 test] and 3.16 µM [sample B, mean of 2 tests] and the TGI [28] was 59.8 nM [sample A, 1 test] and > 26.2 µM [sample B, mean of 2 tests].
